We go through 86 sequences from the supplement of paper PMC3334620.

Over roughly 33,000 sequences, “E-score (-0.5 to 0.5)” has its median near -0.054; the highest 2% begin near 0.35. The list shows a part of the results.

The test has as its target T1, Stb5 (UniProt P38699).
T1 sequence: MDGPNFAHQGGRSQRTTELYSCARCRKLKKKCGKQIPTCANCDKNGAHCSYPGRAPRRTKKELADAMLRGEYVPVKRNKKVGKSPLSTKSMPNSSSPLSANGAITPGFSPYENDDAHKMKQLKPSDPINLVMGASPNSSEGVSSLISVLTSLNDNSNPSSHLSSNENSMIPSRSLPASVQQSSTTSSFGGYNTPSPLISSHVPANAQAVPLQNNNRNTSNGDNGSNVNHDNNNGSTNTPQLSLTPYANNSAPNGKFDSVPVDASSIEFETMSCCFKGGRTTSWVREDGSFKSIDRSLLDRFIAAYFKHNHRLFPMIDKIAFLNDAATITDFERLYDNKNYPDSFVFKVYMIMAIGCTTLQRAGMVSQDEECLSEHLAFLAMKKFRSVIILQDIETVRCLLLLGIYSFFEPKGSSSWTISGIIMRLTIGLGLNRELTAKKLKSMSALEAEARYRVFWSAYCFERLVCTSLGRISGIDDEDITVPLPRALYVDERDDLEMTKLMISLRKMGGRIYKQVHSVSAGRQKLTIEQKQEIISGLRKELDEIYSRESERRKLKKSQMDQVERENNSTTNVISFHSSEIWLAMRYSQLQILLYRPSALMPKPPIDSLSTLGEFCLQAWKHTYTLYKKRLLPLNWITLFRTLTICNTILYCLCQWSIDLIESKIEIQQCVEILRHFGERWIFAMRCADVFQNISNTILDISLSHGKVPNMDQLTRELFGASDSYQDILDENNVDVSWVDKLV
Kind of test: PBM E-score (8-mer binding enrichment) (E-score (-0.5 to 0.5)); higher = stronger / more preferred TF binding; most listed sequences are background and not binding sites. To be noted: protein concentration: 200 nM; construct: GST-full length. In short, it runs like this: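 Universal all-10-mer Agilent arrays, double-stranded by primer extension on fresh or once-stripped slides, were probed with about 100-200 nM GST-tagged yeast transcription factors made by PURExpress. Fluorescent anti-GST detected bound protein, and masliner normalised the scans. E-scores from the Universal PBM Analysis Suite were given to each ungapped eight-base word pooled with its reverse complement.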
With CCGCTACA, the “PBM E-score” value was 0.262.
As for GCAAGTCC, the “PBM E-score” value amounted to 0.116.
For CGGTGGAC, the “PBM E-score” value stood at 0.149.
As to CACTCGAG, the “PBM E-score” value is -0.217.
As for GATCGATC, the “PBM E-score” value is -0.018.
In the case of GATGTGAC, the “PBM E-score” value is -0.0651.
For CCTCCTCC, the “PBM E-score” value was -0.233.
Under CCTGGAGA stands -0.307; under GACATGGA, -0.0821; under CCCTGGGA, -0.0706.
Regarding CAACTACA, the “PBM E-score” value was -0.0881.
Turning to ATGTACCA, the “PBM E-score” value was -0.0814.
With GCCAGCCA, the “PBM E-score” value was -0.0714.
For TAATGTAA, the “PBM E-score” value was -0.00366.
For the sequence AGCAGCCA, the “PBM E-score” value was -0.241.
For AGAAACCC, the “PBM E-score” value was determined as 0.152.
In the case of CCCTGAAG, the “PBM E-score” value is -0.0687.
For GACTTGAA, the “PBM E-score” value was -0.105.
AGAAAGCC: the “PBM E-score” value is 0.115.
As for CGTTCTAC, the “PBM E-score” value was determined as 0.00478.
As to ACCCGCGG, the “PBM E-score” value amounted to 0.285.
As to CTCTCCTC, the “PBM E-score” value is -0.331.
With AGCCTCGA, the “PBM E-score” value was -0.3.
As for GCTTACAA, the “PBM E-score” value is -0.0923.
In the case of AAAGGGAT, the “PBM E-score” value was -0.198.
Turning to AGTCACCG, the “PBM E-score” value was determined as 0.314.
With CAAGAAAA, the “PBM E-score” value is -0.098.
In the case of CAATGGAG, the “PBM E-score” value is -0.291.
Consider TACCCGCA, for which the “PBM E-score” value was determined as 0.16.
ATTGGACA: the “PBM E-score” value was -0.0996.
With CAATGATC, the “PBM E-score” value was -0.281.
ATAGTACG: the “PBM E-score” value is -0.0437.
As for CATCGATG, the “PBM E-score” value was -0.254.
Then AAGCCAAG, with -0.246.
Consider CTGCGACA, for which the “PBM E-score” value turned out to be 0.166.
As to GGGCTACC, the “PBM E-score” value is -0.151.
Turning to CACACGGA, the “PBM E-score” value is 0.233.
Take AGCATGCA: the “PBM E-score” value was -0.285.
Then AGACACCT, with -0.108.
In the case of CACTAATA, the “PBM E-score” value is -0.0623.
With CTCAAGAG, the “PBM E-score” value was -0.295.
Turning to AGCTCTAA, the “PBM E-score” value was -0.234.
On to CCTTACCG, for which the “PBM E-score” value is 0.05.
In the case of ATATTGTA, the “PBM E-score” value was -3e-05.
In the case of ATGTAGAC, the “PBM E-score” value turned out to be 0.0624.
Then GTATTGTA, with 0.103.
Take TAGGATGA: the “PBM E-score” value was -0.12.
Regarding ATAGTTAG, the “PBM E-score” value turned out to be 0.115.
Then GTTTAAGA, with 0.156; and ACGCAGAA, with -0.226.
For the sequence ACAATTGA, the “PBM E-score” value was -0.171.
As for ACCGCAGC, the “PBM E-score” value came out at 0.29.
For CTCTCAGC, the “PBM E-score” value is -0.144.
Then AGTTTGAA, with -0.0739; and CCCGCTCG, with 0.296.
Take CCACGGGC: the “PBM E-score” value was determined as 0.184.
With ATACCAGG, the “PBM E-score” value was -0.215.
Consider AGATTAAC, for which the “PBM E-score” value was -0.0201.
For CATGGGTA, the “PBM E-score” value is -0.226.
Take ATAATCAG: the “PBM E-score” value is -0.0824.
On to CGTATGAC, for which the “PBM E-score” value turned out to be 0.163.
For GTCTGGTA, the “PBM E-score” value was -0.051.
Consider GAGGACCC, for which the “PBM E-score” value is -0.123.
Turning to GATGAAGC, the “PBM E-score” value was -0.11.
Then TCTACCCA, with -0.177.
Under GGCTCGAA stands -0.104; under AAGCCTGC, -0.204.
Turning to CACGTAAG, the “PBM E-score” value is -0.191.
CCGCTGTC: the “PBM E-score” value turned out to be 0.269.
AAATTTGC: the “PBM E-score” value is -0.0894.
Under AAATACTA stands -0.191.
In the case of ATTGACAA, the “PBM E-score” value is -0.104.
On to CCAGCAAA, for which the “PBM E-score” value is -0.131.
As to TATACCGA, the “PBM E-score” value is 0.26.
Consider CAATAGGG, for which the “PBM E-score” value was -0.236.
Take ACCTAGCG: the “PBM E-score” value came out at 0.0651.
Take AGGGGCGG: the “PBM E-score” value is 0.36.
Turning to ATAGCTGG, the “PBM E-score” value was -0.0665.
Take ACATTGTC: the “PBM E-score” value was determined as 0.0388.
Then AAACCCAC, with 0.136; and CGAGTCCC, with 0.0941; and CACCTCCA, with -0.105.
For CACGTGCG, the “PBM E-score” value was 0.156.
Regarding TAACAACA, the “PBM E-score” value was -0.157.
On to ATTAGCCG, for which the “PBM E-score” value is 0.0947.
CTTGTTGC: the “PBM E-score” value is 0.00049.
